Results are given in words; binding and its absence hold for the method and conditions named. Some results given as binding are weak or reduced against the parent protein; the word gives no strength.
Assays:
Experiment in all cases: two-hybrid; LexA BD fusions (pLexA) and B42 AD fusions (pB42AD) in yeast EGY48; blue colour on 2% Gal/1% raffinose/SD/-Ura/-His/-Trp/-Leu/X-β-Gal medium; images after 3 days at 30°C
[1] = target: T1, GL3 (Arabidopsis thaliana) (UniProt Q9FN69)
T1 sequence: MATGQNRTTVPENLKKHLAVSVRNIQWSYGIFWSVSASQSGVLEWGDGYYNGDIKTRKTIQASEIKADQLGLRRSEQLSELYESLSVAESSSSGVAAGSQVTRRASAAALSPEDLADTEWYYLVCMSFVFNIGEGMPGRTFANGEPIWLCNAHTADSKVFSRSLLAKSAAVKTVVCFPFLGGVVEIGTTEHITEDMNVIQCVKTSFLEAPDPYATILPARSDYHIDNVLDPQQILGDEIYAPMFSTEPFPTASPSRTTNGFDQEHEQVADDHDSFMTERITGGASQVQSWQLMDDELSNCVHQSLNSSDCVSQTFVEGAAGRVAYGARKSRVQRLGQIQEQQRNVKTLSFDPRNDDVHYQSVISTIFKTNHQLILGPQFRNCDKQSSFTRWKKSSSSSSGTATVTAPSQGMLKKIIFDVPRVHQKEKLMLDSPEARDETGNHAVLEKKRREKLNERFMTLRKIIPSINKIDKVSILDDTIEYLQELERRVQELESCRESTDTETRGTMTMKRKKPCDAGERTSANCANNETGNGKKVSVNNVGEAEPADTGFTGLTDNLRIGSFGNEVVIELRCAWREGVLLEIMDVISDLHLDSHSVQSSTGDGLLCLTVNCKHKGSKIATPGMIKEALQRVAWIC

Amino acid sequences for entries named in this document (tags omitted).
UniProt Q8LBM2: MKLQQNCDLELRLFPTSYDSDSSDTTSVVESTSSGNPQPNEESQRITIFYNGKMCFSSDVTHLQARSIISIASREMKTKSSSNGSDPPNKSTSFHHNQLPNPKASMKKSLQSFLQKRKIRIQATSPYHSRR
UniProt O23487: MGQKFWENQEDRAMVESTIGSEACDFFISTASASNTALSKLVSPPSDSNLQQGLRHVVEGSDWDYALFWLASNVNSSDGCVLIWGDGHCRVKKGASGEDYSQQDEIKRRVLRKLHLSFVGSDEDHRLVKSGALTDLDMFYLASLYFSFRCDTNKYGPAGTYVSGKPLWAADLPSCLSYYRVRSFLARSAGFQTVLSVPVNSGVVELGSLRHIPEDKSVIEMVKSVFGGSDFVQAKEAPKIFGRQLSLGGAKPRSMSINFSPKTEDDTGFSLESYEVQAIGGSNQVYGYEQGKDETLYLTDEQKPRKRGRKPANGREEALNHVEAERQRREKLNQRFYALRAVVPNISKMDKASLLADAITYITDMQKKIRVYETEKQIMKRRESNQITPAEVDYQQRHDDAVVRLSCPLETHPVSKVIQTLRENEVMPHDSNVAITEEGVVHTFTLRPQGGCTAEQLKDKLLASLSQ
UniProt Q9LNJ5: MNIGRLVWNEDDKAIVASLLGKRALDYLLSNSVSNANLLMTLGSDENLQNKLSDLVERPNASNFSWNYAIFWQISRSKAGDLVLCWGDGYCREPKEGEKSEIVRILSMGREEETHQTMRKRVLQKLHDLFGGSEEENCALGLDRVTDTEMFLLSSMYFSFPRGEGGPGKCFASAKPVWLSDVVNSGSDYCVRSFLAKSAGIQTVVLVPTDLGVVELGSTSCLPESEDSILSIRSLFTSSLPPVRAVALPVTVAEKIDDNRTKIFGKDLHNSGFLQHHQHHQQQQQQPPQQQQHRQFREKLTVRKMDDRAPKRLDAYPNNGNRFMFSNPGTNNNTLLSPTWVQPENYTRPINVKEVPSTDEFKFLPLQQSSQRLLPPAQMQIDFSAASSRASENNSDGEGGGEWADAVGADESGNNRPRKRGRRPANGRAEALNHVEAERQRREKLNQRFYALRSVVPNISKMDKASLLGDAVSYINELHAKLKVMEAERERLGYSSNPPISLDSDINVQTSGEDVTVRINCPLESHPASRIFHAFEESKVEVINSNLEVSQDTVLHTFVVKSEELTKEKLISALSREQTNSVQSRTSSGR
UniProt Q9ZPY8: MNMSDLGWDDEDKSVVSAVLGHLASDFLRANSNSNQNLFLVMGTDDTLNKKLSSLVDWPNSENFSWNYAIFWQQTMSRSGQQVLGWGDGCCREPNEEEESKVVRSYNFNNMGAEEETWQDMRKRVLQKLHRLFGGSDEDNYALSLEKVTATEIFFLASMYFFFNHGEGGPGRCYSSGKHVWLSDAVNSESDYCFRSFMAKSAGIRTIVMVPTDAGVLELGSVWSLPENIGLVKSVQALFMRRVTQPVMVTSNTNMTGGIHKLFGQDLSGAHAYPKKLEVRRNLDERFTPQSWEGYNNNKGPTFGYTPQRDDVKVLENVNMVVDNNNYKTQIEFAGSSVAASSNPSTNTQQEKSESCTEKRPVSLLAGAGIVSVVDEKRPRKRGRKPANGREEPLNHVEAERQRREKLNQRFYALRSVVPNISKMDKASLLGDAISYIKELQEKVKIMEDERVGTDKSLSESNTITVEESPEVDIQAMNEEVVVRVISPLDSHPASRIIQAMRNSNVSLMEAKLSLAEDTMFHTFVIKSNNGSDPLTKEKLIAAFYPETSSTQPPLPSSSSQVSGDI

[2] = target: T2, JAZ11 (Arabidopsis thaliana) (UniProt Q9M246)
T2 sequence: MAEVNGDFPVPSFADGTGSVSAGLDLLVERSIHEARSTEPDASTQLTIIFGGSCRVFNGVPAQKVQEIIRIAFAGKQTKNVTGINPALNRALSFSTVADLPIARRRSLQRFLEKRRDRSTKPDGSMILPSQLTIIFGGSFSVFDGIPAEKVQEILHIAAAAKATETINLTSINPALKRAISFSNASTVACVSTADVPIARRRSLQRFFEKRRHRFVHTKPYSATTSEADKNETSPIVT

[3] = target: T3, GL1 (Arabidopsis thaliana) (UniProt P27900)
T3 sequence: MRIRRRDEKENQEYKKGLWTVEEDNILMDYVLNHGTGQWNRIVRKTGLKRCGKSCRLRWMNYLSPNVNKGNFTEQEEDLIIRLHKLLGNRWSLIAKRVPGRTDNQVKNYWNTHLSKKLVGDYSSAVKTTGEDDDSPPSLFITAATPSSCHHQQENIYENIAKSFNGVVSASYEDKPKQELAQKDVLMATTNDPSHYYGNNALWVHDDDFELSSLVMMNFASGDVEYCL

[4] = target: JAZ8 (Arabidopsis thaliana) (UniProt Q8LBM2)

binding [1] | binding [2] | binding [3] | binding [4] | Substance
no binding | binds | no binding |  | bHLH3 (from UniProt O23487 1-467)
no binding | binds | no binding | binds | bHLH13 (from UniProt Q9LNJ5 1-590)
no binding | binds | no binding | binds | bHLH17 (from UniProt Q9ZPY8 1-566)

From publication PMC3723532
